# Measured values taken from the supplement of paper PMC3334620.
# Whole data set: some 33,000 sequences, median “E-score (-0.5 to 0.5)” near -0.04, cut for the highest 2% near 0.36. This is one part of the list.
# Target: T1, Hmlalpha2 (UniProt P0CY09)
# T1 sequence: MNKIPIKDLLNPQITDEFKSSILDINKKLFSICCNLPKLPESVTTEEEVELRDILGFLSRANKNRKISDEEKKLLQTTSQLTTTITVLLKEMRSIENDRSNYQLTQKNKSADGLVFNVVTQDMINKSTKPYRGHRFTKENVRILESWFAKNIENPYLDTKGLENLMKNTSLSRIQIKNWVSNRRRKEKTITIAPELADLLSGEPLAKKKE
# Test: PBM E-score (8-mer binding enrichment) (E-score (-0.5 to 0.5)); higher = stronger / more preferred TF binding; most listed sequences are background and not binding sites
# Conditions: protein concentration: 200 nM; construct: GST-full length
# Method in brief: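 Bound GST-tagged yeast transcription factors, applied at about 100-200 nM to double-stranded universal all-10-mer Agilent arrays, were detected with fluorescent anti-GST. Scans were normalised with masliner. A modified Wilcoxon-Mann-Whitney statistic, the E-score, was assigned to each ungapped eight-base word pooled with its reverse complement by the Universal PBM Analysis Suite.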
row,Sequence,PBM E-score
1,CCGCAGTA,-0.0882
2,GTAAGCAA,0.0319
3,ACATTAGT,0.196
4,AATACTTA,0.174
5,TACGAGGA,-0.0647
6,AGAGGTCG,-0.0701
7,AGCTTTTC,0.0531
8,CTCGAGTA,0.13
9,AGGTTACG,-0.0602
10,CTTGTAAC,0.36
11,GGCGCGCA,-0.149
12,ATGCTTTA,0.169
13,TCCTGCGA,-0.123
14,CGGAGGTA,-0.16
15,CTCCTCAG,-0.376
16,TCCGTCGA,-0.125
17,GTCATCGA,-0.0402
18,CTTCCAGC,-0.289
19,TCGAAACA,0.152
20,CTATAAGA,-0.198
21,ACCACCAG,-0.148
22,GCCCTTAC,-0.0944
23,ACTCGAGA,-0.17
24,CAGGGGCC,-0.205
25,GCGGGCAC,-0.0969

row,Sequence,PBM E-score
1,GTAGACAC,0.19
2,ACCGATGC,-0.222
3,CAAGAGCG,-0.184
4,ATGACTAA,-0.113
5,CCTGGGGA,-0.389
6,CGGTGTGA,0.0349
7,GAATGCGC,-0.00918
8,ATATGATC,0.0322
9,AGAGCGGC,-0.195
10,ATTGCCAA,-0.206
11,GTGAAGCA,-0.113
12,GCCAAAGA,-0.132
13,ACAGGCAA,0.0701
14,GACGGGTA,-0.103
15,CATAGGGC,-0.2
16,CATTCAGG,-0.254
17,AATGTGGA,0.0913
18,ACCGTATG,-0.0129
19,AGTGAAGG,-0.0841
20,ACCAAGAT,0.0339
21,CCACCAAA,-0.182
22,GCTGCTAC,-0.143
23,GATACTGA,-0.0889
24,CGTTTACA,0.452
25,CCATCTAG,-0.171

row,Sequence,PBM E-score
1,GGGCCGAC,-0.164
2,CCCATTAC,0.124
3,ACTCGGCG,-0.0699
4,CTTGCTAA,0.132
5,CCGGGGCA,-0.219
6,AAAACCCT,-0.022
7,CCATTCAC,-0.0258
8,CCATGGGA,-0.252
9,AGCCCCAT,-0.125
10,CCTGGGTA,-0.0828
11,CATGAGAA,0.194
12,CTTCCGTC,-0.213
13,ACCAACCA,-0.0314
14,CGTCGTTC,0.0974
15,CAGGGACC,-0.288
16,CATGCGAG,-0.0337
17,AGAAAATG,0.0892
18,AGCTTCAG,-0.18
19,AAGAAAGG,0.085
20,GCTGAGCC,-0.041
21,ACAGGGAT,0.0683
22,ATCGAAGC,-0.128
23,CACACCGA,0.101
24,ACATAACT,0.325
25,GGTTGACA,0.191

row,Sequence,PBM E-score
1,CAGGTAAA,0.236
2,CGGCCTAA,-0.0668
3,GGCGAGCC,-0.135
4,CGGTAACG,-0.18
5,AGATGAAA,0.0863
6,CTAGCGAA,-0.22
7,CATCGATC,-0.0854
8,CAGACGCA,-0.16
9,GATGGGAA,-0.167
10,AGGTTAAG,0.0826
11,CGCCCCGA,-0.308
12,GCACAAAC,0.0766
13,CCTGAAGG,-0.357
14,CCCCAACA,0.0173
15,CCAGTCGC,-0.208
16,ACCTACGA,0.00015
17,AGTGCCGC,-0.27
18,CAGGCCTA,-0.0179
19,CACTGATA,-0.0328
20,CCTCAGAA,-0.106
21,AGTTCCAG,-0.148
22,GTGACGTA,0.214
23,AGAGTTCG,0.0753
24,CGTAAGGA,-0.0158
25,ATCGATGA,0.225

row,Sequence,PBM E-score
1,CCTCTCCC,-0.235
2,ATCTCCAG,-0.134
3,TAGTAGCA,0.036
4,AAAATCTG,0.0313
5,CGCTTCCC,-0.0728
6,CGTATGAG,-0.0766
7,ATCTGTGA,-0.0783
8,AAAGCACC,-0.275
9,CAACCATG,0.127
10,CCGCGGCA,-0.245
11,AGCTTGAG,-0.187
12,GTGGCTCA,-0.127
13,CAAGTCAA,0.085
14,TAATGCTA,0.267
15,ACAGTCCA,0.0438
16,ACAAGAGG,0.0656
17,GGTTCCTA,-0.087
18,GATGGGCA,-0.112
19,AACGTCAA,0.186
20,CTTGTGAA,0.182
21,AAACGCCA,0.0702
22,ATAGGACC,-0.146
23,AATATGGT,-0.0785
24,AAGGTGCA,-0.0293
25,CGTAGTCC,-0.176

row,Sequence,PBM E-score
1,AAGGAAAG,-0.28
2,CCCTTATA,-0.002
3,AACGGGGC,-0.247
4,CTCAAGTC,-0.11
5,AGTAGCCA,-0.274
6,ATTTTCTC,-0.129
7,GATTGATA,0.148
8,AAAGACCT,-0.206
9,AGATTCGA,-0.134
10,CTGATAGA,0.0465
11,CATGCTGC,0.00676
12,CTCATGCA,-0.0449
13,TTATTAAA,0.246
14,GGCATGCC,-0.191
15,CTCTATCC,-0.271
16,GGTTCTAC,0.0675
17,GTCGACTA,0.168
18,CTTGCTCC,-0.194
19,ACTTGGGA,-0.23
20,AATTCAAG,0.144
21,GCTCAAAA,-0.0457
22,ATAAGATG,-0.0523
23,CATATGTC,-0.0145
24,CATGCTAG,0.19
25,ATACCACC,-0.141

row,Sequence,PBM E-score
1,GGCTCACC,-0.298
2,TGCAACAA,0.226
3,GCGGAGCC,-0.284
4,GTATTAGA,0.289
5,ACCAGCAG,-0.248
6,CACTCTAC,0.269
7,TCAAACCA,0.123
8,AGCCAGGA,-0.152
9,ACATTCAT,0.259
10,CGGTGGTC,-0.22
11,ATCGGGCA,-0.13
12,CCGCCATA,-0.0564
13,CATCTCCG,0.0167
14,AAGCCACA,-0.0453
15,CCCACTCC,-0.241
16,ATTCTTCC,-0.227
17,GCACACCA,-0.0935
18,CCCGGAGC,-0.221
19,GTCCATTA,0.184
20,TCGCGTCA,0.21
21,ATGTCTGC,0.0622
22,AACGACCC,-0.223
